Experimental findings from the supplement of paper PMC10126150 are described below.

Values marked as one replicate rest on one cluster of the flow cell; about a third of the high ones do not repeat.
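Also: ATP exposure 15 min at 22 °C before imaging.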

This data set deals with ATP. The data set is described as follows: switch fluorescence ratio, 500 uM ATP over buffer (Cy3 cluster intensity, sum of 5 cycles each) (fold (ratio)); higher = stronger signal-on switching upon ATP binding; sequences stand for … in TCGTCGGCAGCGTCAGATGTGTATAAGAGACAGTTTTTTTTTTTTTTTTTTTTTTTTT…TC. The conditions noted are these: aptamer strand: ATP DNA aptamer (quencher-CACCTGGGGGAGTATTGCGGAGGAAGG + anchor), 100 nM annealed; ATP concentration: 500 uM; one replicate. In outline:
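Per cluster, summed Cy3 intensity from the target cycles was divided by that from the buffer cycles to give the fluorescence ratio, then averaged per switch-domain sequence. Clusters outside 100-1000 RFU were excluded. The Cy3-labelled switching-strand clusters, on a modified Illumina MiSeq flow-cell, were annealed to 100 nM quencher-labelled ATP aptamer and imaged in selection buffer, then after 15 min with 500 uM ATP at 22 °C, for five cycles with NaOH stripping and re-annealing between them.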
Consider AGCGTAGCGG, for which the switch fluorescence ratio turned out to be 1.07.
The figure for GAGACGTTTC is 0.948.
On to GCTCAAAGTG, for which the switch fluorescence ratio stood at 1.
On to ATCATCATTA, for which the switch fluorescence ratio stood at 0.972.
On to TCCGGTTGGA, for which the switch fluorescence ratio came out at 1.04.
Then CCATATTTGC, with 1.09.
For TAGGAGTGGT, the switch fluorescence ratio amounted to 1.06.
In the case of TGGCAACATT, the switch fluorescence ratio is 0.994.
GGTAGCCACA: the switch fluorescence ratio was 0.963.
On to TGTGACAGGG, for which the switch fluorescence ratio was 1.01.
Then CTCGATCAGG, with 1.2.
Then CTCGGTGTTC, with 0.942; and GATAACGGTA, with 1.
ACGGGATGGA: the switch fluorescence ratio was determined as 1.05.
The figure for TCGGAGGTTG is 0.911; for GGTTACGCAA it is 4.48.
Take GACGTATGGA: the switch fluorescence ratio is 1.04.
Then ATGGACGTGG, with 1.03; and TCAAAGCGCC, with 1.05; and TAATTTGGCC, with 0.996.
On to CGAAAAAAGG, for which the switch fluorescence ratio is 0.979.
Take GAAGTACGGG: the switch fluorescence ratio was determined as 1.17.
As for TGGCTTCCG, the switch fluorescence ratio was 1.04.
Then CAATAGAGCA, with 1.03; and AAATATCGGC, with 1.
Take GCACGATGGA: the switch fluorescence ratio was determined as 1.01.
As for ACAGTTGCCT, the switch fluorescence ratio came out at 0.997.
Then AACGTAAGGG, with 2.04.
Consider GGTCATGGAT, for which the switch fluorescence ratio turned out to be 1.03.
As for TTCCTCATT, the switch fluorescence ratio stood at 1.02.
Then AATTAATTAT, with 0.981.
Then CTCAGATAGA, with 1.06.
The figure for GAAGCAGCAT is 1.1; for CACGTCACAA it is 1.46.
For the sequence ATTCTGGCCG, the switch fluorescence ratio amounted to 0.994.
With ATGCAGTGAG, the switch fluorescence ratio was 0.995.
As for GTGGGGTTTA, the switch fluorescence ratio worked out at 0.995.
Then TGATCCAATG, with 1.02; and GAGTTAAAAA, with 0.918; and TGCAATTAAG, with 1.69.
The figure for TTCACTAA is 1.08; for CGAATTTTG it is 0.98; for CCTTAGCTAC it is 2.44.
Then TATGTGTA, with 1.01.
Regarding TAGAACTGTT, the switch fluorescence ratio is 1.09.
Consider AAGTATCTTA, for which the switch fluorescence ratio is 1.03.
The figure for GGCTCAGCTT is 1.08.
Turning to GTGCGGAAGA, the switch fluorescence ratio was found to be 1.05.
For the sequence ACAAGGAGGG, the switch fluorescence ratio was found to be 0.978.
For AAACGCCG, the switch fluorescence ratio came out at 1.05.
The figure for TCCCTGGGG is 1.1; for ATACTCGCGA it is 1.18; for CCCCCGTTTT it is 1.24.
Then ACAGGGTTTG, with 1.03; and TCTCAGTGGG, with 0.964.
As to AGGTGTGGGG, the switch fluorescence ratio is 0.98.
On to CTTGGGACGC, for which the switch fluorescence ratio is 1.16.
The figure for ACTCGTTTT is 1.02.
The figure for TGACTTCTTG is 1.01; for ATCTGTAAA it is 0.992; for GATGCCTATG it is 1.03.
On to ATATGGCGAG, for which the switch fluorescence ratio stood at 0.965.
Then GGTCATCCTA, with 0.949.
With ATCACTGGAA, the switch fluorescence ratio was found to be 1.02.
The figure for AAAGTACGCT is 1.06.
Regarding AAACGTATAG, the switch fluorescence ratio was 1.03.
Then CCTATTGGAG, with 0.979.
The figure for GCTTTCGGTG is 1.03.
Then GCCAGGATCG, with 1; and GCTTGAGTTT, with 0.995.
Take GGGCACGGCG: the switch fluorescence ratio worked out at 1.04.
On to CTTCTGCACG, for which the switch fluorescence ratio was 1.13.
The figure for ATCTGGGCTC is 1.01; for TAATCAGGTG it is 3.04.
Then CCAACGTCGT, with 1.07.
The figure for GCAGAAAACC is 1.03; for TTCGCAGAC it is 3.9.
For GAGGTTCCAA, the switch fluorescence ratio is 0.979.
Turning to AAGACAGGGC, the switch fluorescence ratio is 0.992.
Then GGGGTAACA, with 1.04; and AATATAGTGA, with 0.971.
The figure for TTATTTCTTA is 0.983; for TAGCGAGATG it is 0.949.
On to CACCCGAGGC, for which the switch fluorescence ratio is 1.26.
AACAACGTA: the switch fluorescence ratio turned out to be 1.04.
The figure for ATACTTGCGG is 1.05; for AGCTTAAAAT it is 1.01; for GGGGCCGAGT it is 0.962.
Then AATAGCCTGG, with 0.994; and CTGCCAGAGG, with 0.986; and CGCAGCCAGA, with 1.29.
Take ATGACATACT: the switch fluorescence ratio was 1.32.
Then GATGGCTTGT, with 0.97; and TAAGCTCCTA, with 1.04.
Turning to CTCAGCGACG, the switch fluorescence ratio amounted to 1.13.
With GTGGTTCGC, the switch fluorescence ratio turned out to be 1.04.
Take TGATAGGCTG: the switch fluorescence ratio was 1.06.
Then ACGCCCGTGG, with 1.02.
AACGATGCCA: the switch fluorescence ratio was found to be 0.996.
The figure for GATGGTATAC is 1.4.
Consider AAGGCTGCA, for which the switch fluorescence ratio is 1.01.
On to CTATATTCCA, for which the switch fluorescence ratio was 1.03.
Then TGCTTCGTTG, with 1.16.
Then GGCCTCAATT, with 1.01.
As for TAGATGCTTA, the switch fluorescence ratio is 0.983.
The figure for CCGTTTGTTG is 1.04; for TGTCTTGCGT it is 0.974.
Then ATGAAGAATA, with 1.05; and AGAGTACCTC, with 1.07; and TTAGTCTTTT, with 0.998.
The figure for GTTGATTACC is 1.04; for CGCTCGCTA it is 1.8; for ACACTTCCAC it is 1.38.
As to TTAGAGGATA, the switch fluorescence ratio stood at 0.977.
GGGAATCTCG: the switch fluorescence ratio was 0.969.
The figure for TTGCCAGCAG is 1.01; for TAAGTTACAT it is 1.01.
Then TCTCGATAAG, with 1; and GCCTGGTCGG, with 0.986; and AGCAAGTGG, with 1.03.
